# According to the supplement of paper PMC8728848:
# The list shows a part of the results.
# B1: DC-ASGPR S+GEE (Homo sapiens) (protein)
# chain: MTRTYENFQYLENKVKVQGFKNGPLPLQSLLQRLRSGPCHLLLSLGLGLLLLVIICVVGFQNSKFQRDLVTLRTDFSNFTSNTVAEIQALTSQGSSLEETIASLKAEVEGFKQERQAVHSEMLLRVQQLVQDLKKLTCQVATINNNGEEASTEGTCCPVNWVEHQDSCYWFSHSGMSWAEAEKYCQLKNAHLVVINSREEQNFVQKYLGSAYTWMGLSDPEGAWKWVDGTDYATGFQNWKPGQPDDWQGHGLGGGEDCAHFHPDGRWNDDVCQRPYHWVCEAGLGQTSQESH
# What was measured:
# Assay in all cases: glycan array binding signal (z-score within array); higher = stronger binding
# Conditions in all cases: glycan notation: IUPAC condensed, linker removed
# [1] = target: Neu5Ac(a2-6)Gal(b1-4)GlcNAc(b1-3)Gal(b1-4)GlcNAc(b1-3)Gal(b1-4)GlcNAc
# Procedure, shortened: (§1)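 Glycan array data were curated from 3228 arrays in the Consortium for Functional Glycomics database and kept only where the protein sequence was available. Glycan names were converted to IUPAC-condensed notation, and columns mapping to the same glycan were averaged. The binding signal is a within-array Z-score, averaged across arrays of the same protein sequence at different concentrations or buffers and across linkers. Negative Z-scores can be read as non-binding.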
# [2] = target: Neu5Ac(a2-6)Gal(b1-4)GlcNAc(b1-3)Gal(b1-4)GlcNAc(b1-3)Gal(b1-4)GlcNAc(b1-2)Man(a1-3)[Neu5Ac(a2-6)Gal(b1-4)GlcNAc(b1-3)Gal(b1-4)GlcNAc(b1-3)Gal(b1-4)GlcNAc(b1-2)Man(a1-6)]GalNAc
# Procedure, shortened: as §1
# [3] = target: Neu5Ac(a2-6)Gal(b1-4)GlcNAc(b1-3)Gal(b1-4)GlcNAc(b1-3)GalNAc
# Procedure, shortened: as §1
# [4] = target: Neu5Ac(a2-6)Gal(b1-4)GlcNAc(b1-3)Gal(b1-4)GlcNAc(b1-3)[Neu5Ac(a2-6)Gal(b1-4)GlcNAc(b1-3)Gal(b1-4)GlcNAc(b1-6)]GalNAc
# Procedure, shortened: as §1
# [5] = target: Neu5Ac(a2-6)Gal(b1-4)GlcNAc(b1-3)Gal(b1-4)GlcNAc(b1-6)[Gal(b1-3)]GalNAc
# Procedure, shortened: as §1
# [6] = target: Neu5Ac(a2-6)Gal(b1-4)GlcNAc(b1-3)Gal(b1-4)[Fuc(a1-3)]GlcNAc(b1-3)Gal(b1-4)[Fuc(a1-3)]GlcNAc
# Procedure, shortened: as §1
# [7] = target: Neu5Ac(a2-6)Gal(b1-4)GlcNAc(b1-3)GalNAc
# Procedure, shortened: as §1
# [8] = target: Neu5Ac(a2-6)Gal(b1-4)GlcNAc(b1-3)[Neu5Ac(a2-6)Gal(b1-4)GlcNAc(b1-6)]GalNAc
# Procedure, shortened: as §1
# [9] = target: Neu5Ac(a2-6)Gal(b1-4)GlcNAc(b1-6)GalNAc
# Procedure, shortened: as §1
# [10] = target: Neu5Ac(a2-6)Gal(b1-4)GlcNAc(b1-6)[Gal(b1-3)GlcNAc(b1-3)]Gal(b1-4)Glc
# Procedure, shortened: as §1
# [11] = target: Neu5Ac(a2-6)Gal(b1-4)GlcNAc(b1-6)[Gal(b1-3)]GalNAc
# Procedure, shortened: as §1
# [12] = target: Neu5Ac(a2-6)Gal(b1-4)GlcNAc6S
# Procedure, shortened: as §1
# Neu5Ac(a2-6)GalNAc = target: Neu5Ac(a2-6)GalNAc
# Procedure, shortened: as §1
# [13] = target: Neu5Ac(a2-6)GalNAc(b1-4)GlcNAc
# Procedure, shortened: as §1
# [14] = target: Neu5Ac(a2-6)GalNAc(b1-4)GlcNAc6S
# Procedure, shortened: as §1
# [15] = target: Neu5Ac(a2-6)GlcNAc(b1-4)GlcNAc
# Procedure, shortened: as §1
# [16] = target: Neu5Ac(a2-6)GlcNAc(b1-4)GlcNAc(b1-4)GlcNAc
# Procedure, shortened: as §1
# Neu5Ac(a2-8)Neu5Ac = target: Neu5Ac(a2-8)Neu5Ac
# Procedure, shortened: as §1
# [17] = target: Neu5Ac(a2-8)Neu5Ac(a2-3)Gal(b1-3)GalNAc(b1-4)[Neu5Ac(a2-3)]Gal(b1-4)Glc
# Procedure, shortened: as §1
# [18] = target: Neu5Ac(a2-8)Neu5Ac(a2-3)Gal(b1-3)GalNAc(b1-4)[Neu5Ac(a2-8)Neu5Ac(a2-3)]Gal(b1-4)Glc
# Procedure, shortened: as §1
# [19] = target: Neu5Ac(a2-8)Neu5Ac(a2-3)Gal(b1-4)Glc
# Procedure, shortened: as §1
# [20] = target: Neu5Ac(a2-8)Neu5Ac(a2-3)Gal(b1-4)GlcNAc
# Procedure, shortened: as §1
# [21] = target: Neu5Ac(a2-8)Neu5Ac(a2-3)[Gal(b1-3)GalNAc(b1-4)]Gal(b1-4)Glc
# Procedure, shortened: as §1
# [22] = target: Neu5Ac(a2-8)Neu5Ac(a2-3)[GalNAc(b1-4)]Gal(b1-4)Glc
# Procedure, shortened: as §1
# [23] = target: Neu5Ac(a2-8)Neu5Ac(a2-8)Neu5Ac
# Procedure, shortened: as §1
# [24] = target: Neu5Ac(a2-8)Neu5Ac(a2-8)Neu5Ac(a2-3)Gal(b1-4)Glc
# Procedure, shortened: as §1
# [25] = target: Neu5Ac(a2-8)Neu5Ac(a2-8)Neu5Ac(a2-3)[Gal(b1-3)GalNAc(b1-4)]Gal(b1-4)Glc
# Procedure, shortened: as §1
# [26] = target: Neu5Ac(a2-8)Neu5Ac(a2-8)Neu5Ac(a2-3)[GalNAc(b1-4)]Gal(b1-4)Glc
# Procedure, shortened: as §1
# [27] = target: Neu5Ac(a2-8)Neu5Ac(a2-8)Neu5Ac(a2-8)Neu5Ac(a2-3)[GalNAc(b1-4)]Gal(b1-4)Glc
# Procedure, shortened: as §1
# [28] = target: Neu5Ac(a2-8)Neu5Gc(a2-3)Gal(b1-4)GlcNAc
# Procedure, shortened: as §1
# [29] = target: Neu5Ac(b2-6)Gal(b1-4)GlcNAc
# Procedure, shortened: as §1
# Neu5Ac(b2-6)GalNAc = target: Neu5Ac(b2-6)GalNAc
# Procedure, shortened: as §1
# [30] = target: Neu5Ac9Ac(a2-3)Gal(b1-3)GlcNAc
# Procedure, shortened: as §1
# [31] = target: Neu5Ac9Ac(a2-3)Gal(b1-4)GlcNAc
# Procedure, shortened: as §1
# [32] = target: Neu5Ac9Ac(a2-6)Gal(b1-4)GlcNAc
# Procedure, shortened: as §1
# [33] = target: Neu5Gc(a2-3)Gal(b1-3)GlcNAc
# Procedure, shortened: as §1
# [34] = target: Neu5Gc(a2-3)Gal(b1-3)[Fuc(a1-4)]GlcNAc
# Procedure, shortened: as §1
# Neu5Gc(a2-3)Gal(b1-4)Glc = target: Neu5Gc(a2-3)Gal(b1-4)Glc
# Procedure, shortened: as §1
# [35] = target: Neu5Gc(a2-3)Gal(b1-4)GlcNAc
# Procedure, shortened: as §1
# [36] = target: Neu5Gc(a2-3)Gal(b1-4)GlcNAc(b1-3)Gal(b1-4)GlcNAc(b1-2)Man(a1-3)[Neu5Gc(a2-3)Gal(b1-4)GlcNAc(b1-3)Gal(b1-4)GlcNAc(b1-2)Man(a1-6)]Man(b1-4)GlcNAc(b1-4)GlcNAc
# Procedure, shortened: as §1
# [37] = target: Neu5Gc(a2-3)Gal(b1-4)[Fuc(a1-3)]GlcNAc
# Procedure, shortened: as §1
# [38] = target: Neu5Gc(a2-6)Gal(b1-4)GlcNAc
# Procedure, shortened: as §1
# Neu5Gc(a2-6)GalNAc = target: Neu5Gc(a2-6)GalNAc
# Procedure, shortened: as §1
# [39] = target: Neu5Gc(a2-8)Neu5Ac(a2-3)Gal(b1-4)GlcNAc
# Procedure, shortened: as §1
# [40] = target: Neu5Gc(a2-8)Neu5Gc(a2-3)Gal(b1-4)GlcNAc
# Procedure, shortened: as §1
binder,measurement,setting,value
B1,glycan array binding signal (z-score),[1],-0.332
same,glycan array binding signal (z-score),[2],0.132
same,glycan array binding signal (z-score),[3],-1.4
same,glycan array binding signal (z-score),[4],-0.267
same,glycan array binding signal (z-score),[5],-0.042
same,glycan array binding signal (z-score),[6],-0.251
same,glycan array binding signal (z-score),[7],0.361
same,glycan array binding signal (z-score),[8],0.135
same,glycan array binding signal (z-score),[9],-0.245
same,glycan array binding signal (z-score),[10],-0.047
same,glycan array binding signal (z-score),[11],-0.36
same,glycan array binding signal (z-score),[12],-0.325
same,glycan array binding signal (z-score),Neu5Ac(a2-6)GalNAc,1.48
same,glycan array binding signal (z-score),[13],0.853
same,glycan array binding signal (z-score),[14],0.608
same,glycan array binding signal (z-score),[15],-0.303
same,glycan array binding signal (z-score),[16],-0.324
same,glycan array binding signal (z-score),Neu5Ac(a2-8)Neu5Ac,-0.377
same,glycan array binding signal (z-score),[17],-0.32
same,glycan array binding signal (z-score),[18],-0.342
same,glycan array binding signal (z-score),[19],-0.334
same,glycan array binding signal (z-score),[20],-0.278
same,glycan array binding signal (z-score),[21],0.848
same,glycan array binding signal (z-score),[22],2
same,glycan array binding signal (z-score),[23],-0.301
same,glycan array binding signal (z-score),[24],-0.432
same,glycan array binding signal (z-score),[25],-0.429
same,glycan array binding signal (z-score),[26],1.63
same,glycan array binding signal (z-score),[27],1.61
same,glycan array binding signal (z-score),[28],-0.292
same,glycan array binding signal (z-score),[29],-0.3
same,glycan array binding signal (z-score),Neu5Ac(b2-6)GalNAc,0.361
same,glycan array binding signal (z-score),[30],-0.316
same,glycan array binding signal (z-score),[31],-0.346
same,glycan array binding signal (z-score),[32],-0.332
same,glycan array binding signal (z-score),[33],-0.217
same,glycan array binding signal (z-score),[34],-0.33
same,glycan array binding signal (z-score),Neu5Gc(a2-3)Gal(b1-4)Glc,-0.351
same,glycan array binding signal (z-score),[35],-0.25
same,glycan array binding signal (z-score),[36],-0.254
same,glycan array binding signal (z-score),[37],0.499
same,glycan array binding signal (z-score),[38],-0.355
same,glycan array binding signal (z-score),Neu5Gc(a2-6)GalNAc,2.28
same,glycan array binding signal (z-score),[39],-0.281
same,glycan array binding signal (z-score),[40],-0.306
